Results taken from patent US10690661B2, “Yeast-based biosensor” (priority 2014, dated 2020).

Molecular target: mutant Ste2 receptors isolated for activity for ligand Variant 44
Test: GFP/RFP reporter dose response, mutants isolated for activity for ligand Variant 44

WAWLQLKPGQPMY
EC50 relative to Ste2 (four of five isolated mutants, FIG. 3A): significantly lower

WHWLQLKPGQPMY [α-factor]
activity of isolated mutants for the native pheromone (FIG. 3B): maintained some activity
